The record followed here is PMC5299624 (The Journal of General Physiology, 2017).

The target of this experiment is calmodulin (CaM). The experiment can be described thus: SEC.

B1: SUMO-tagged NaV1.5 III-IV linker peptide ([…]) (domain or fragment)
chain: not shown
In the case of B1, the binding result is on record as “binds”.
